Reference: patent US10626421B2, “Use of uric acid for culturing bacteria sensitive to oxygen tension” (FONDATION MEDITERRANEE INFECTION, priority 2014, dated 2020)

Test system: Bifidobacterium brevis
Test: Comparative aerobic culture on Schaedler 0.2% agar (Table 2)
Conditions: 37° C., AA 1 g/L, UA 400 mg/L

With O=C1O[C@H]([C@@H](O)CO)C(O)=C1O [ascorbic acid, reference compound] the “colonies detected with the naked eye at t=96 h” value was 0.
With O=c1[nH]c(=O)c2[nH]c(=O)[nH]c2[nH]1 [uric acid, 7,9-dihydro-1H-purine-2,6,8(3H)-trione] the “colonies detected with the naked eye at t=96 h” value was “Positive”.
